The list shows a part of the results. At the low end of the ranking the order means little. The protein was read in a cell extract, so binding may be indirect.

The assay addresses T1, HNF4alpha2 (COS-7 nuclear extract) (UniProt P41235).
T1 sequence: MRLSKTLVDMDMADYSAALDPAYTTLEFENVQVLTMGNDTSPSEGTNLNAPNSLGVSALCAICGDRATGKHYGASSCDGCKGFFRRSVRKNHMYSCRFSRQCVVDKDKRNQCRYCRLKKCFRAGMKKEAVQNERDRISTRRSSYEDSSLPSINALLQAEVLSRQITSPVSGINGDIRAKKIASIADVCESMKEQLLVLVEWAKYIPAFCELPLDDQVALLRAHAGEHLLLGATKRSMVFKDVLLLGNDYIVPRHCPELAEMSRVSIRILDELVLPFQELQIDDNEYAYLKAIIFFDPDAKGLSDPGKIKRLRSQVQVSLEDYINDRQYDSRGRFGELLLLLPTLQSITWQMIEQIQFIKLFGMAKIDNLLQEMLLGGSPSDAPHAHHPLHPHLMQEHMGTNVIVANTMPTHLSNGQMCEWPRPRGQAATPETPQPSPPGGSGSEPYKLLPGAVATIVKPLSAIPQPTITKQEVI
Nature of the assay: protein-binding microarray. The following applies: COS-7 nuclear extract on double-stranded Agilent 4x180k PBM; binding buffer, salt, pH and temperature not given; high values mean tight binding; double strand, one strand shown; sequences stand for … in …GCCTAGGGAGATTAGAGTATCGGTCGA
CTAAATTAGATATGGCTTATACTTGAGGTA: the binding signal (log2 normalized intensity) is -1.08.

As for AAGCTTGGTATGCTTAAGTGGCTCACCCAA, the binding signal (log2 normalized intensity) is -1.07.

As to ACCCAAATCAAAGTAACAAGAGGCAAAGGC, the binding signal (log2 normalized intensity) is -0.983.

For the sequence CCCGAGTGAGGCAATGCCTCGCCCTGCTTC, the binding signal (log2 normalized intensity) is -1.18.

With TGGGAGATATATGAGGGGTGTAAACCTGGT, the binding signal (log2 normalized intensity) is -0.0995.

Regarding ACCCCCATTCTTCCTGGTATCAGAGTGGAG, the binding signal (log2 normalized intensity) was 1.36.

In the case of GGAGATGAGTGGGTTCACTTTGAGCAAGAT, the binding signal (log2 normalized intensity) was 0.683.

On to GGCGCTTATCTGAGCACACACTCACGGACC, for which the binding signal (log2 normalized intensity) was -1.21.

As to TGAAGCTCTCTTTGTGAAATGGGACCCAAC, the binding signal (log2 normalized intensity) amounted to 1.14.

For the sequence AGCCTCATCTGAGATAAGGCAAGTCCCTTC, the binding signal (log2 normalized intensity) is -1.11.

Turning to AAACTATGCATGCTGTGTGTGTGTGTGTGT, the binding signal (log2 normalized intensity) was 3.31.

In the case of AGATAAGATAGCACCAGCCCATTAATCAAG, the binding signal (log2 normalized intensity) was -1.16.

Regarding TTTTGTTTAGGAAGAGATCAAAGTTCTGTT, the binding signal (log2 normalized intensity) came out at 2.91.

Regarding GACATCTGGAAATGTTTGTAGGGACTTTGA, the binding signal (log2 normalized intensity) came to 4.28.

Take CCTGCCGGCGGCGCAGACGGCGGATCCTCC: the binding signal (log2 normalized intensity) was -1.11.

On to TAACTCCTTTGTGTGAATCGACCTTTAGCA, for which the binding signal (log2 normalized intensity) came to 5.44.

On to CTTCCAGTATCTTAGCCAAAGAGAAGCCTA, for which the binding signal (log2 normalized intensity) is -1.11.

Turning to TACGTTTCTTTCATGTCATAGTAAATCCAC, the binding signal (log2 normalized intensity) is 0.896.

As for ACAGATAAACCCCTGGAGCACAGAAGGAGG, the binding signal (log2 normalized intensity) is -1.14.

With CTTCCTGAATGCCTAGGTGACAAGGAAAAC, the binding signal (log2 normalized intensity) was -0.974.

Take TGGACATTGGCCCTTTGACCTTTAATCAAG: the binding signal (log2 normalized intensity) came to 6.47.

As to ATCTACCCTTGACAATTCCTATTCATTCCC, the binding signal (log2 normalized intensity) was -0.0843.

Consider CCACCGTGGTGTAGAGGCCCTGCAGGGCCC, for which the binding signal (log2 normalized intensity) is -1.23.

For the sequence AGAGGAGGGGGCAGGAGCCCAAGAAGCGTC, the binding signal (log2 normalized intensity) is -1.15.

With CTTTCCTAGACGTAAGACAACATCTGGTGT, the binding signal (log2 normalized intensity) worked out at 0.801.

Take TCCCTATGTTGTCCCTGCCCTTTGTCCAGG: the binding signal (log2 normalized intensity) is 3.89.

For AGGTACTGGTAGCCTGGGCCCCAGGGGACG, the binding signal (log2 normalized intensity) is -0.222.

AAATCCAAAGGGCATCAGCCCCAATGGCTA: the binding signal (log2 normalized intensity) was -1.11.

Take GTGAGATGGCTCAGCCTGGCTGTGTAGACA: the binding signal (log2 normalized intensity) is -1.01.

Consider GAGATAACTGGGGGCATAGCCCATGCAAAT, for which the binding signal (log2 normalized intensity) is -1.16.

For the sequence CGGGAGGGAGAGAAGGACATCTATCATTTT, the binding signal (log2 normalized intensity) is -0.616.

With AATGGATCCACTCAGTATGGCAACCTTTGT, the binding signal (log2 normalized intensity) is 3.54.

On to CAAGGGCAACTCTAATAGCACAGATCACAT, for which the binding signal (log2 normalized intensity) is -0.966.

With GAGCTCCTTGTGAGCAGGATTATAGTTTAT, the binding signal (log2 normalized intensity) is 0.466.

Regarding ACAGTTAGAAGTACTAGATTTGGAACTCAG, the binding signal (log2 normalized intensity) was -0.99.

As for CTTGGCACTTAGCACAAGTGACTATTCTGG, the binding signal (log2 normalized intensity) was 0.959.

CAAGGCCTACCTTGGGTTCTCACTATCACC: the binding signal (log2 normalized intensity) was -1.08.

As for CAGGGTTCACATAGCCACCAGGGCCTCTGA, the binding signal (log2 normalized intensity) is -1.21.

As to GTGTGTATGAAAGGCCACCAGGTGGAGTCT, the binding signal (log2 normalized intensity) amounted to 0.616.

Turning to TAAAGTCACAAAGGTGGAACTCAAGATAGT, the binding signal (log2 normalized intensity) amounted to 0.0624.

With CTCGAGATAACCCACCTCCGGCCGGGAAGA, the binding signal (log2 normalized intensity) was -0.939.

Turning to GAAAGGAAGATGCACATTCCCTCCAGCAGG, the binding signal (log2 normalized intensity) was -1.06.

In the case of CTGGTTGACACTCGAGGATCAGAGACACGA, the binding signal (log2 normalized intensity) is -1.14.

For the sequence CAGCTGCAGGTGTGGGGGCGGCAGGAGCCA, the binding signal (log2 normalized intensity) is -1.15.

For the sequence CAGGAATGCCTTTTCTTTCATGTTGTTTAG, the binding signal (log2 normalized intensity) stood at 1.94.

As to ATAAGGGAGTTTCAGAGGACTGCCCAGCTG, the binding signal (log2 normalized intensity) was -1.25.

On to AGACAACCTGGGTGTAGGTGCTGCACCTTG, for which the binding signal (log2 normalized intensity) stood at 1.31.

For the sequence TACTGTCTTTTTGCCACTAGGGGTCACTGT, the binding signal (log2 normalized intensity) came to 3.8.

Regarding TCTGTTTGATTCCATGCTGATAATGGAATT, the binding signal (log2 normalized intensity) was 0.756.

Regarding AAGGTTAAGCCATTGGGCAATCCAATGTCT, the binding signal (log2 normalized intensity) is -1.12.

Take AATTTTCTCTGTATACTTGTCTTATCAGCA: the binding signal (log2 normalized intensity) came out at 0.598.

Consider GATGTGGAAATCTGGACTCAGCAGAACTTT, for which the binding signal (log2 normalized intensity) turned out to be 0.903.

For the sequence GTATTGCTCAATGTCAAACACACTGTAACA, the binding signal (log2 normalized intensity) is -1.13.

On to TTCAAAGGTTAAGACTTTGAATCAGTAAAT, for which the binding signal (log2 normalized intensity) was 1.21.

Turning to TTGGTGGAATCTGAACTTTTGGCTCCCTGG, the binding signal (log2 normalized intensity) is 0.743.

Consider AGACAGTCACTCCCACCCTTCCTGTTATGT, for which the binding signal (log2 normalized intensity) amounted to 2.11.

Regarding GGATGGGGCCTGGGAGATAAGGGTTCAGAT, the binding signal (log2 normalized intensity) turned out to be 0.715.

Take ATAAGGTAGGCACGTAAATAAGGATAAAGT: the binding signal (log2 normalized intensity) was -0.018.

As for AGGGCAAAGGTTAGCTTGGACAGAGTTTGT, the binding signal (log2 normalized intensity) was 3.44.

For the sequence AGCTCCTGGGCCAAAGGGCATTCTGGAGTT, the binding signal (log2 normalized intensity) came out at 2.86.

Regarding AGTTGAGATTTATTCCCAGGTTCCAAAGGT, the binding signal (log2 normalized intensity) worked out at 2.07.

For the sequence TCAATGATACCATCAGATACCTACTCTGCT, the binding signal (log2 normalized intensity) is -1.12.

On to AGTGGGGTGGGGGCGAGAGAGTTCTATGGG, for which the binding signal (log2 normalized intensity) is -1.22.

Turning to GATGGCAGCTTCATTCCAGCCCCATTCTGT, the binding signal (log2 normalized intensity) was -0.167.

Turning to GGTGAGTCTTTGCCCCTGGACTTTGAATTT, the binding signal (log2 normalized intensity) is 4.94.

Regarding GGGACGCGACCTCCGGGAAAGCTATCCCGG, the binding signal (log2 normalized intensity) was -1.18.

As to TGGTTTATCTGTTGTCAAACCCACATTCTT, the binding signal (log2 normalized intensity) was determined as 0.626.

Take GGTCCGCAGGGCTGCCTCGCTTCCGGGTGG: the binding signal (log2 normalized intensity) is -1.13.

On to CTCGGCCTCATGGGCGATCCCGAAAGCCGG, for which the binding signal (log2 normalized intensity) was -1.23.

As for ACCCCTGATCTACAAGGTCCATAAAACCAG, the binding signal (log2 normalized intensity) is -1.11.

On to CACAAACATTCCAGTGGTCCCTGGAGATAA, for which the binding signal (log2 normalized intensity) was -0.698.

In the case of CCCCCGCAACTATTTATGAGTCTTGGGAAT, the binding signal (log2 normalized intensity) turned out to be 0.969.

Regarding TTTTGCCTCCGCTCCGCCGGACCGGCCAAA, the binding signal (log2 normalized intensity) is -1.12.

Take GCAGGTTCTCAGAAACGCCTGGCGCTTATC: the binding signal (log2 normalized intensity) was -1.14.

Take CATACCAGGTGTAAAGTCTGGCATACAGGG: the binding signal (log2 normalized intensity) was found to be 0.753.

Regarding AAAGATTCTTAGAGAGTTGGGCAAGACTCG, the binding signal (log2 normalized intensity) was -1.02.

With AGGCCACTCCTGATAGCTAGAGAGTTCAAG, the binding signal (log2 normalized intensity) was -1.13.

As to ACCTTTATCTGATCAGAAATGTTTGGAATT, the binding signal (log2 normalized intensity) is 1.4.

Consider CTGCCTCCCTGTCAGCTTCACTGATAGCGA, for which the binding signal (log2 normalized intensity) is -1.15.

On to CCCCTGCATGAACCTTTGCTCCCTGGGAAC, for which the binding signal (log2 normalized intensity) worked out at 3.75.

Take CTGTTTACCCACTTGGGGTTCTTGGATCCT: the binding signal (log2 normalized intensity) came out at 0.913.

Consider AAGTCTCAGAAGCTGGGAGACCACTGGTGT, for which the binding signal (log2 normalized intensity) is 0.973.

In the case of ATGGTGTTTGCTTTGTGAAGGCTTATCTGC, the binding signal (log2 normalized intensity) amounted to 0.554.

TTATCTCCAAGACCCTTCATAGCTTACTTG: the binding signal (log2 normalized intensity) is -0.711.

Consider TTTGCCCCACTCTCCTCTGCCACTGTATCA, for which the binding signal (log2 normalized intensity) amounted to 2.33.

As for TTCCACAAGGTCCCATGGCTAATCTGTGAC, the binding signal (log2 normalized intensity) was -0.772.

With TCAAATCTAAACCTAGCAGCCTGCCACCCA, the binding signal (log2 normalized intensity) was -1.07.

AATGTACAAAGGTCAACGGCACAAGGAGAT: the binding signal (log2 normalized intensity) is 4.29.

With TCAGAGGAATGTCTGACCAACCTGTCCAAA, the binding signal (log2 normalized intensity) was found to be 0.136.

Take GATAAGATTTTAGAAGTCACTCCTTCCTCA: the binding signal (log2 normalized intensity) was -1.05.

For the sequence GAGTGGGACAAAGTTCCCCGGGCAGCTGTG, the binding signal (log2 normalized intensity) was -1.07.

On to CCACTGGAGTCTTGTTTGTCAAGTTTGGTA, for which the binding signal (log2 normalized intensity) came to 1.81.

CGCCCGCGCTGCTCGCAAGCAGAACCTTGG: the binding signal (log2 normalized intensity) was -1.18.

The values are drawn from publication PMC10726135.
